Experimental data: PubChem BioAssay AID1645882 (National Center for Advancing Translational Sciences (NCATS), 2021)
The whole screen tested about 16,000 compounds, of which about 120 (0.75%) were called active. Inconclusive results (about 4%) are left out. The call rests on the fitted dose curve; in most records, active means well fitted inhibition curve with a large enough effect; inconclusive means small, poorly fitted or top-dose-only effect; inactive means no such curve, though single readings can be large or run the other way. The list shows a part of the results.

molecular target: Rap guanine nucleotide exchange factor 3 (Homo sapiens) (UniProt O95398); experiment: Validation qHTS for antagonist of cAMP-regulated guanine nucleotide exchange factor 3 (EPAC1); conditions: EPAC1 Rap1B-BODIPY-GDP exchange, fluorescence; series mostly up to 150 µM; activity change, negative = inhibition: at the top concentration;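 further: plate controls were DMSO for no effect and ATA control for full effect; nearly all actives have a fitted effect of over 75% in size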
Outline: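 EPAC1 (100 nM) mixed with 250 nM RAP1B-BODIPY-GDP and 50 uM GDP; compounds in concentration series, 5 min at room temperature. Fluorescence (ex 480/em 540 nm) read every 5 min for 30 min; normalized to ATA control and DMSO.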

UniProt O95398, sequence (O95398 whole entry, looked up): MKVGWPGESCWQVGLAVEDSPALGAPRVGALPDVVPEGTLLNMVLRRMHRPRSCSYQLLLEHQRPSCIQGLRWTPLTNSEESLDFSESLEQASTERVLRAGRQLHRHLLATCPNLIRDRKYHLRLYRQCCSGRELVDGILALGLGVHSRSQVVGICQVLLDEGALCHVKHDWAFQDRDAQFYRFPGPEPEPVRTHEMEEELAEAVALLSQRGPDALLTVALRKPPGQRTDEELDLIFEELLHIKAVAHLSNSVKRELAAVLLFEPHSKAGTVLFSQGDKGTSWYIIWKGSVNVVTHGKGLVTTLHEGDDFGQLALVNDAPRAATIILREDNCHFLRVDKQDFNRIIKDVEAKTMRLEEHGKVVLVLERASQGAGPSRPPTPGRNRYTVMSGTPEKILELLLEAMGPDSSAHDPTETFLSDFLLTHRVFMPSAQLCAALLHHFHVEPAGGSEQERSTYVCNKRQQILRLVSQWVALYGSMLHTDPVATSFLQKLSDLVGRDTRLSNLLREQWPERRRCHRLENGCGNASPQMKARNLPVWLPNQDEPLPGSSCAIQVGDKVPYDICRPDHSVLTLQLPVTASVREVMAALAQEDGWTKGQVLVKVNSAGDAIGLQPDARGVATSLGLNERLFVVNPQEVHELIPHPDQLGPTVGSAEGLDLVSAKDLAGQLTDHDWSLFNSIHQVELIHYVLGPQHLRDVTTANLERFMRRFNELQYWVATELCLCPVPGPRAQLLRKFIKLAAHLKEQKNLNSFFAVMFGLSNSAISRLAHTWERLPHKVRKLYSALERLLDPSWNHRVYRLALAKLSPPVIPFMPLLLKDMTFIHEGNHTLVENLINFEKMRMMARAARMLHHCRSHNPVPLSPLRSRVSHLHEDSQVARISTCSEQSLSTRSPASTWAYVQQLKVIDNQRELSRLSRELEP

Activity change, negative = inhibition, inactive:
COC(=O)[C@@H]1C[C@H](NC(=O)c2cc(C(F)(F)F)ccc2Cl)CN1Cc1cccc(O)c1 11.1%, O=C(O)c1ccc(S(=O)(=O)N(Cl)Cl)cc1 5.86%, O=C(Oc1ccccc1C(=O)O)c1ccccc1O 25.9%, O=C(c1ccco1)N1CCC[C@@]2(CCN(Cc3ccccc3)C2)C1 4.93%, COc1ccc(CN2CCc3nnc(CCc4ccccc4)n3CC2)c(OC)c1C 2.12%, N[C@H](C(=O)O)C1C(C(=O)O)C1C(=O)O (some centres not stated) 15.6%, O=C1CCC[C@@H]2CC(Nc3ccccc3)C[C@@H]3CCN1[C@H]23 (some centres not stated) 5.34%, COC1=C(C(=O)O)N2C(=O)[C@@H](NC(=O)[C@H](N)C3=CCC=CC3)[C@H]2SC1 30.7%, O=[N+]([O-])c1cccc(CN2C[C@@]34C=C[C@@H](C[C@@H]3S2(=O)=O)O4)c1 -10.6%, COc1ccc(NC(=O)[C@@H]2CC=C[C@@H]3CCN(C4CCCCC4)C(=O)[C@@H]32)cc1 7.2%, O=C(O)CCc1cccnc1 23.9%, NS(=O)(=O)c1cc(Cl)c(Cl)c(S(N)(=O)=O)c1 20.5% [at 75.8 µM], CC(C)(C)c1ccc(C(=O)C[n+]2ccc(Cl)c3ccc(Cl)cc32)cc1 24.8%, C[C@]12CC[C@@H](O)C[C@@H]1CC[C@@H]1[C@@H]2CC[C@]2(C)C=CC[C@@H]12 2.77%, O=C(c1cccc(F)c1)N1CCC[C@@]2(CCN(Cc3nccs3)C2)C1 14.8%, C[C@H]1[C@H](C)CC[C@]2(C(=O)O)CC[C@]3(C)C(=CCC4[C@@]5(C)CC[C@H](O)C(C)(C)[C@@H]5CC[C@]43C)[C@H]12 (some centres not stated) -6.12%, O=C(c1csnn1)N1CCC[C@@]2(CCN(c3ccncc3)C2)C1 9.12%, Cc1c(C(=O)O)c(O)cc2c1C(=O)c1c(O)c([C@H]3O[C@H](CO)[C@@H](O)[C@H](O)[C@H]3O)c(O)c(O)c1C2=O -23%, Cc1csc(C(C)N(C)C(=O)c2cc(NC(=O)C3CCC3)c3c(c2)nc(-c2ccncc2)n3C)n1 (configuration not stated) 14.7%, COc1ccc(/C=C/C(=O)NCC2Cc3cccc(-c4nc(C)cnc4C)c3O2)cc1OC (configuration not stated) 5.92%, O=C(NCCN1CCOCC1)c1ccc(Cl)cc1, Fc1ccc(N2CCN(Cc3ccc4c(c3)CN(Cc3cccn3-c3ncccn3)CCO4)CC2)cc1 -1.21%, O=C(c1ccncc1)N1CCC2(CC1)CN(c1ccc(-c3ccccc3)cc1)C2 -0.329%, N#Cc1ccc(CN2CC3(CCN(C(=O)c4cc(C(F)(F)F)cc(C(F)(F)F)c4)CC3)C2)cc1 7.37%, COCCn1c(=O)c(-c2ccccc2)nc2cnc(N3CCOCC3)nc21 14.2%, Cc1ccc(/C(=C/CN2CCCC2)c2ccccn2)cc1 1.58%, CN(C)CCCSC(=N)N, COc1ccc(-c2cc(=O)c3c(O)cc(O[C@@H]4OC(COC5OC(C)C(O)C(O)[C@@H]5O)C(O)C(O)C4O)cc3o2)cc1 (some centres not stated) 3.76%, Cn1cnnc1Sc1ccc(CN2CCOc3ccc(C4=CCCCC4)cc3C2)o1 8.23%, COc1ccc(-n2c(=O)c(-c3cccc(C#N)c3)nc3cnc(N4CCNCC4)nc32)cc1 8.74%, CNc1ncnc2ccc(-c3ccccc3CN(C)C)cc12 13.2%, COc1ccc(-c2coc3cc(O)ccc3c2=O)c(OC)c1O 19.4%, NCCNCCNCCN -3.71%, COc1ccccc1CNc1nc(-c2ccccc2CN(C)C)nc2ccccc12 5.55%, COc1ccccc1C1OC(=O)CC1C(=O)OC[C@@H]1CCCN2CCCCC12 (some centres not stated) -1.78%, Cc1onc(-c2c(F)cccc2Cl)c1C(=O)N[C@@H]1C(=O)N2[C@@H]1SC(C)(C)[C@@H]2C(=O)O, COc1ncc2nc(CCc3ccccc3)c(=O)n(CCc3ccccc3)c2n1 15.6%, Cn1c2c(c(=O)c3ccccc31)C[C@@H](O)C(C)(C)O2 -13%, CCCCOC(=O)C(=O)Nc1cccc(-c2nn[nH]n2)c1 22.6%, O=C(Nc1ccc(Cl)c(C(F)(F)F)c1)[C@@H]1CC=C[C@@H]2CCN(C3CC3)C(=O)[C@@H]21 2.5%, CC1CC[C@@]2(OC1)OC1CC3C4CC=C5CC(O)CC[C@@]5(C)C4CC[C@]3(C)C1C2C (some centres not stated) 1.86%, Nc1c(CC(=O)O)cccc1C(=O)c1ccc(Br)cc1 15.9%, CCOC(=O)O[C@]1(C(=O)OCCl)CC[C@@H]2[C@H]3CCC4=CC(=O)C=C[C@]4(C)[C@@H]3[C@@H](O)C[C@@]21C 30.1%, Cc1cc(C(=O)Nc2ccccc2-c2nc(CNC(=O)C3COc4ccccc4O3)c(C)o2)c(C)o1 (configuration not stated) 14.7%, NC[C@@H]1O[C@H](O[C@H]2[C@H](O)[C@H](O[C@H]3[C@@H](O)[C@H](N)C[C@H](N)[C@H]3O[C@H]3O[C@H](CN)[C@H](O)[C@H](O)[C@H]3N)O[C@@H]2CO)[C@@H](N)[C@@H](O)[C@@H]1O 21.7% [at 39.6 µM], OCCN1CCN(CCCN2c3ccccc3C=Cc3ccccc32)CC1, COCc1c(C(=O)N2CC3CCC2C3)cnn1-c1nccc(-c2ccccc2OC)n1 (configuration not stated) 4.87%, Cc1[nH]c2ccccc2c1/C=C/c1ccnc2ccccc12 13.8%, COC(=O)C[C@H]1c2cc(C(F)(F)F)ccc2S(=O)(=O)N1Cc1ccc(OC)cc1 -4.26%, CCC(CCC(C)C1CCC2C3CCC4CC(O)CC[C@@]4(C)C3CC[C@@]12C)C(C)C (some centres not stated) 18%, C[C@@H]1CC[C@@]2(OC1)O[C@H]1C[C@H]3[C@@H]4CC[C@H]5C[C@@H](O)CC[C@]5(C)[C@H]4CC(=O)[C@]3(C)[C@H]1[C@@H]2C 23.6% [at 75.8 µM], CCCS(=O)(=O)NCc1c(C)ncc2c1CCN(C(=O)c1c(F)ccc(F)c1F)C2 19.8%, CCCC(=O)NCCc1c(I)[nH]c2ccc(OC)cc12 0.548%, COc1ccc2c(c1)-c1nc(-n3ncc(C(=O)NCC4CCCN(C)C4)c3C3CC3)ncc1CC2 (configuration not stated) 15.1%, CN1C(=O)OC(C)(C)C1=O 8.63% [at 75.8 µM], CC(=O)CCCCn1c(=O)c2c(ncn2C)n(C)c1=O, CCCCC/C=C\C/C=C\C/C=C\C/C=C\CCCC(=O)O[C@@H](CO)COC(=O)CCCCCCCCCCCCCCCCC 8.85% [at 15.3 µM], COCC(=O)N1CCC[C@@]2(CCN(c3ccccn3)C2)C1 12.3%, Cn1cccc1C(=O)N1CCC2(CC1)CCN(c1ccncc1)CC2 35.7%, CC(C)NC(=O)c1cn(C2CCCN(C(=O)c3cc4ccccc4oc3=O)C2)nn1 (configuration not stated) 1.04%, CN(C/C=C/c1ccccc1)Cc1cccc2ccccc12 -4.31%, O=c1c(-c2ccc(O)cc2)coc2cc(O)ccc12, COc1cccc(-c2cc(NCc3ccccc3)ncn2)c1 -12.9%, C[C@H](NC(CCc1ccccc1)C(=O)O)C(=O)N1CCC[C@H]1C(=O)O (some centres not stated) 30.2%, CN(C)Cc1ccccc1-c1cc(NCc2cccs2)ncn1 14.9%, CC(=O)OC1CC[C@]2(C)C(CC(OC(C)=O)[C@@]3(C)C4=CC(=O)OC(c5ccoc5)[C@]4(C)CCC23)C1(C)C (some centres not stated) -3.51%, CN(C)c1cccc2ccccc12 23.1%, CCCCC(CC)COS(=O)(=O)O (configuration not stated) -7.64%, CC(C)NC[C@H](O)COc1cccc2ccccc12, COc1ccc(C(=O)N2CCC3(CC2)CN(CC(C)C)C3)cc1 -0.473%, CCn1c(-c2ccccc2F)nc2cc(NC(C)=O)cc(C(=O)NC(c3ccccn3)C(F)(F)F)c21 (configuration not stated) 2.82%, C[C@H]1O[C@@H](n2cc(F)c(=O)[nH]c2=O)[C@H](O)[C@@H]1O 24.3%, CCN1CCCC1CNC(=O)c1cnn(-c2nccc(-c3ccccc3OC)n2)c1-c1ccco1 (configuration not stated) 11.3%, O=[N+]([O-])c1nccn1CO[C@@H](CO)[C@H](O)CO -6.73%, Cc1ccc(CNc2ncnc3sc(C(=O)N4CCCCC4c4cccnc4)c(C)c23)o1 (configuration not stated) -1.39%, FC(F)(F)c1ccccc1-c1cncnc1NCc1cccs1 -1.64%, N[C@@H](Cc1cc(CP(=O)(O)O)cc(-c2ccccc2Cl)c1)C(=O)O 5.93%, CC1(C)C(=O)C=C[C@]2(C)C1CC(=O)[C@]1(C)C2CC[C@@]2(C)C(c3ccoc3)OC(=O)C3O[C@@]321 (some centres not stated) 6.15%, O=C(O)[C@H](O)[C@@H](O)[C@H](O[C@@H]1O[C@H](CO)[C@H](O)[C@H](O)[C@H]1O)[C@H](O)CO 28.9% [at 75.8 µM], COc1ccc(SCCN2CC[C@@H](O)CCC2=O)cc1 0.0769%, COc1ccc(C(=O)N2CCC3(CCCN(CC(C)C)C3)CC2)cc1 15.7%, COc1cc2nc(CCc3nc4cc(OC)c(OC)cc4[nH]3)[nH]c2cc1OC 3.37%, COc1ccc(C(=O)O)c(O)c1OC 7.63%, CC(C(O)c1ccccc1)N(C)CCOC(c1ccccc1)c1ccccc1 (configuration not stated) 24.4%, Cc1ccccc1-c1nc(-n2ccnc2)c2ccccc2n1 9.27%, COc1ccc(NC(=O)N2CC3(CCN(C(=O)c4c(C)noc4C)CC3)C2)cc1 16.1%, COc1ccccc1-c1ccc2ncnc(NC3CC3)c2c1 1.95%, Cc1cc(C)cc(OCC2CNC(=O)O2)c1 (configuration not stated) 19%, CC(=O)O[C@H]1C[C@@H]2CC[C@@H]3[C@H](CC[C@@]4(C)[C@H]3C[C@H]([N+]3(C)CCCCC3)[C@@H]4OC(C)=O)[C@@]2(C)C[C@@H]1N1CCCCC1 17.6%, Cc1ccc(O)c(-n2nc3ccccc3n2)c1 -2.32%, Cc1c(C(=O)NCC2(N3CCOCC3)CCCCC2)cnn1-c1nccc(-c2ccccc2F)n1 16.5%, CC1CCCCN1CCCOC(=O)c1ccccc1 (configuration not stated) 17%, CC(=O)NCCNc1nc(-c2ccc(N(C)C)cc2)nc2ccccc12 9.19%, CCCCCCCC/C=C\CCCCCCCC(=O)NCCO, CN(C)c1ncc2nc(CCc3ccccc3)c(=O)n(C[C@H]3CCCO3)c2n1 15.8%, COCCn1c(=O)c(-c2cccc(C#N)c2)nc2cnc(N3CCN(C)CC3)nc21 -4.6%, CN(C)c1ccc(-c2nc(N3CCNCC3)c3ccccc3n2)cc1 -1.29%
